To fix the notation:
B1: TPR 5TU (parent)
chain: GGAUCUUCUCGAUCUAACAAAAAAGACAAAUCUGCCACAAAGCUUGAGAGCAUCUUCGGAUGCAGAGGCGGCAGCCUUCGGUGGCGCGAUAGCGCCAACGUUCUCAACUAUGACACGCAAAACGCGUGCUCCGUUGAAUGGAGUUUAUCAUG

Variants at the background level are over-represented here.

The variants in this data set derive from B1. The experiment in a line: polymerase ribozyme fitness, log enrichment relative to wild type (log ratio); higher = more active; in vitro selection for triplet polymerase activity. Summed up: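 Fitness compares each genotype's enrichment to that of the wild type on a logarithmic scale, averaging replicates with inverse-variance weights. The logarithm is base 2. Enrichment came from Illumina sequencing of input and output libraries after one triplicate round of in vitro selection, which included frozen incubation at −7 °C, of PCR-built, transcribed mutant libraries of each subunit of a heterodimeric triplet polymerase ribozyme. Only genotypes with ≥10 input reads and ≥1 read per output were kept.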
As to U6G U9G A20G G84A U130G G143U, the “polymerase ribozyme fitness (log ratio)” value was not above -4.2.
Turning to C8A A16C A60G A91U C96A C114G, the “polymerase ribozyme fitness (log ratio)” value is not above -4.2.
Consider U7A A37C A47C C85U C93A C95U A97U C108U, for which the “polymerase ribozyme fitness (log ratio)” value was not above -4.2.
In the case of U7G A52C U53A A113G A122G A138G, the “polymerase ribozyme fitness (log ratio)” value was not above -4.2.
As for U6A U7G U31C G34A A41U, the “polymerase ribozyme fitness (log ratio)” value is -3.68.
Regarding U6G U9C G11U C18G A19C G46C C76G G92U C108A C118U A119G G141U, the “polymerase ribozyme fitness (log ratio)” value was not above -4.2.
Regarding U6C A40U U56A G59U C87U A98U C118U, the “polymerase ribozyme fitness (log ratio)” value was -0.984.
Then U6C A41C G83A A91C G136U U146A, with not above -4.2.
Regarding U6C A30G C36A G88U C95A A115G U135C, the “polymerase ribozyme fitness (log ratio)” value is not above -4.2.
Turning to C8A A16G C96A, the “polymerase ribozyme fitness (log ratio)” value was not above -4.2.
For the variant U6G A121U, the “polymerase ribozyme fitness (log ratio)” value was -0.506.
On to U7A C63U G86C C87A A106G, for which the “polymerase ribozyme fitness (log ratio)” value is not above -4.2.
Regarding U6G A12C C87A C114G, the “polymerase ribozyme fitness (log ratio)” value is not above -4.2.
With U7C C14A G71A U135C the figure was not above -4.2.
Then U6C C38A G59U C69A, with -2.2.
As for C8A A29U G65A C87A C125U U139A, the “polymerase ribozyme fitness (log ratio)” value was not above -4.2.
Then U7A A49C C51U C87U C108G, with not above -4.2; and U7A C38A U56A C72G U77G U82G A107U A110C, with not above -4.2.
With U7C A21C A24C G62C C76A G133C the figure was not above -4.2; with C8A A19U A28U C51A C54A C87A, not above -4.2; with U6A C87U, -0.846.
Consider U6G U9C A12C U45A A73U C75G C76A C93U, for which the “polymerase ribozyme fitness (log ratio)” value is not above -4.2.
On to U6G G46A G50A C85A U102G, for which the “polymerase ribozyme fitness (log ratio)” value is not above -4.2.
Turning to C8A A41G G68A C75A A91G C96U U102G G141A, the “polymerase ribozyme fitness (log ratio)” value was not above -4.2.
With U7C C35U the figure was -2.29; with U7A C43U A49C G80C U90G G94A C131U, not above -4.2.
With U7G C8U A12U A39U A47U G59C G65U G84A C118A G124A U139A the figure was not above -4.2; with U7C A20U C96A C103U U109C G152U, -3.42.
With C8A A28G C93U C123A the figure was not above -4.2.
For U7A A12G A23G U53A G92U C118A G140U, the “polymerase ribozyme fitness (log ratio)” value is not above -4.2.
On to U6G A17C C57G C85A C116G A137U G143U, for which the “polymerase ribozyme fitness (log ratio)” value was not above -4.2.
As to U7C G42U C43G C72U U78A A89G, the “polymerase ribozyme fitness (log ratio)” value is not above -4.2.
Then U7C G42A C54A G71A C75U A91U C95A C125G U139G, with not above -4.2; and U7G C27G C32G C76G A106C, with not above -4.2.
Then U6G A19G U55A G67C U90G A113C G133C, with not above -4.2.
For the variant U7G A23U C85U G152U, the “polymerase ribozyme fitness (log ratio)” value was not above -4.2.
As for U6G G128U, the “polymerase ribozyme fitness (log ratio)” value was -3.77.
Then U7C C35G U44C G84U A115G, with not above -4.2.
Then U6G U13A C27G G94A C99G, with not above -4.2; and U6G U13G U33C C75U C96U, with not above -4.2; and U7A A12U C72A C93U C114A, with not above -4.2.
U6G U15G A30G A49U C93G U109C: the “polymerase ribozyme fitness (log ratio)” value is not above -4.2.
U7G U13A A17U A20C G50A A122C G141U U151G: the “polymerase ribozyme fitness (log ratio)” value was not above -4.2.
Regarding U7A C10U C36A U55A U56G G71A C85G, the “polymerase ribozyme fitness (log ratio)” value is not above -4.2.
On to U7C A47C G94C G100U U134A, for which the “polymerase ribozyme fitness (log ratio)” value is not above -4.2.
Take C8A A12G C85U C103G G124U C129A: the “polymerase ribozyme fitness (log ratio)” value is not above -4.2.
In the case of U7C A16C A91U A120C A138C, the “polymerase ribozyme fitness (log ratio)” value was not above -4.2.
With U6A U53G C93U G140A the figure was not above -4.2.
For U6A U9G C35G A60G C69G G88C C96A, the “polymerase ribozyme fitness (log ratio)” value was not above -4.2.
Regarding U7G C87A, the “polymerase ribozyme fitness (log ratio)” value is not above -4.2.
For U7C A19C G94C G124C A142U G143U, the “polymerase ribozyme fitness (log ratio)” value was not above -4.2.
With U6C C18U G50A C76A C96G, the “polymerase ribozyme fitness (log ratio)” value is not above -4.2.
With C8A A39U A47C C87A the figure was not above -4.2.
On to C8A A21G A30C G92A G117A, for which the “polymerase ribozyme fitness (log ratio)” value was not above -4.2.
For U6A U13C C51U C87A A91U U144G, the “polymerase ribozyme fitness (log ratio)” value is not above -4.2.
Take U6G A24C A40G G94A G143A U144A: the “polymerase ribozyme fitness (log ratio)” value is not above -4.2.
On to U6A G34A C69U A73G U77A C79A C87A C96U C105A A107U G136A U139A, for which the “polymerase ribozyme fitness (log ratio)” value was not above -4.2.
Take U6G U13G U44A A60G C69G C93A C118A: the “polymerase ribozyme fitness (log ratio)” value is not above -4.2.
For the variant C8A A22U U44A C85G, the “polymerase ribozyme fitness (log ratio)” value is not above -4.2.
Regarding U6G A30C C76U U78G, the “polymerase ribozyme fitness (log ratio)” value was not above -4.2.
Turning to U6C U44A C87G A89U, the “polymerase ribozyme fitness (log ratio)” value was not above -4.2.
Consider U7C U9C C35G U56A U61G C96G G136U, for which the “polymerase ribozyme fitness (log ratio)” value is not above -4.2.
With U6G C63G A64C C85G C95G U101G the figure was not above -4.2.
With U6A U55G, the “polymerase ribozyme fitness (log ratio)” value is -0.118.
Consider C8A A17C G50C G62A C85G, for which the “polymerase ribozyme fitness (log ratio)” value was not above -4.2.
As for U7A C8G A89C C95G, the “polymerase ribozyme fitness (log ratio)” value was not above -4.2.
For the variant C8A C14U A21C U53A G83A A150C, the “polymerase ribozyme fitness (log ratio)” value is not above -4.2.
With U6C A24U A40C U56A A73U C76G C129U the figure was not above -4.2; with C8A A73U C75A, not above -4.2.
As for U6G U7A A49C G81C C85U A98U U104C, the “polymerase ribozyme fitness (log ratio)” value was not above -4.2.
For U7A C8A A52C U56A G68C G84A G92U C96U C108U G124C U144A U145C, the “polymerase ribozyme fitness (log ratio)” value was not above -4.2.
Turning to U6G C38U U45A G50C U55A G65U G74A C93U, the “polymerase ribozyme fitness (log ratio)” value is not above -4.2.
In the case of U6G C75G U90A G92U, the “polymerase ribozyme fitness (log ratio)” value is not above -4.2.
In the case of U7A G25U C27G U44G G86A A115U U144C U148C, the “polymerase ribozyme fitness (log ratio)” value is not above -4.2.
On to U7A A19C U53A C54U C76G C85U C149A, for which the “polymerase ribozyme fitness (log ratio)” value is not above -4.2.
With U6A A52C C87A the figure was not above -4.2; with U7A A12C U33G G74U C93U A107U A120C, not above -4.2.
Take U7C C18U U31A G81A G84U: the “polymerase ribozyme fitness (log ratio)” value is -3.99.
On to U6G G46C A89U G94A A115U G126U U130G C149A, for which the “polymerase ribozyme fitness (log ratio)” value was not above -4.2.
With C8A C32G A40U A52U A73U A91U the figure was not above -4.2.
With U6A C69A G92U A98G U111C G152C, the “polymerase ribozyme fitness (log ratio)” value was not above -4.2.
As for C8A A17G G84U G88A U109G U135G, the “polymerase ribozyme fitness (log ratio)” value was not above -4.2.
As for U7A C14U C43U U78G G84C A115U A142C, the “polymerase ribozyme fitness (log ratio)” value was not above -4.2.
Take U6G U31G G84U: the “polymerase ribozyme fitness (log ratio)” value is -0.345.

The values above are taken from the RNAGym collection of RNA variant scans (doi:10.1073/pnas.2313332121).
